In US20100190717A1, “USE OF MELANIN CONCENTRATING HORMONE AND MET-ENKEPHALIN AS THERAPEUTIC AGENTS” (priority 2007, published 2010):
Ends that are not written are not given here.

Test system: RAW 264.7 (Mouse leukaemic monocyte macrophage cell line) cells
Assay: Phagocytosis assay (Fluorescein-labeled Escherichia coli, flow cytometry)
Format: cell-based
Details: 10 micrograms per ml; RAW 264.7, Fluorescein-labeled E. coli

Asp-Phe-Asp-Met-Leu-Arg-Cys-Met-Leu-Gly-Arg-Val-Tyr-Arg-Pro-Cys-Trp-Gln-Val-OH (DFDMLRCMLGRVYRPCWQV-OH; ends and bridges not checked) [peptide 1, melanin concentrating hormone (MCH), commercially available peptide]
increase on the phagocytic activity of murine macrophages: 54.3%

Tyr-Gly-Gly-Phe-Met-OH [peptide 2]
increase on the phagocytic activity of murine macrophages: 51.4%
